# Reference: PubChem BioAssay AID686978 (National Center for Advancing Translational Sciences (NCATS), 2013)
# Out of some 420,000 compounds screened, about 64,000 (15%) were called active. Inconclusive means that the source gave no clear call. Such entries were picked first, then a sample of the others. Calls follow the shape of the dose curve; as a rule, active = well fitted inhibition curve with a large enough effect; inconclusive = small, poorly fitted or top-dose-only effect; inactive = flat fitted curve, though single readings scatter. Potencies of inconclusive entries are left out as doubtful fits.
# Experiment: qHTS for Inhibitors of human tyrosyl-DNA phosphodiesterase 1 (TDP1): qHTS in cells in absence of CPT; also: nearly all actives have a fitted effect of over 55% in size
# Conditions: DT40 Tdp1-/- hTDP1 cells, no CPT, ATP luminescence, 48 h; activity change, negative = growth inhibition: at 46.2 µM (top of the series) unless noted
# Outline: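 DT40 Tdp1-/-;hTDP1 cells, no CPT (DMSO vehicle only), 400 cells/well; compounds pin-transferred; ≥48 hr, 37 °C; CellTiter-Glo 30 min RT dark, luminescence read.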
# % is scaled to controls: 0 for no effect and ±100 for the full control effect; potency is read from the fitted curve at half-maximal effect; tags tell the direction and shape of the fitted curve.
SMILES,"activity change, negative = growth inhibition",Potency
Cc1c(C)c2ccc(OCC(=O)NCCN3CCOCC3)c(C)c2oc1=O,inactive: 1.91%,
COc1ccc(S(=O)(=O)N2CCCCCC2)cc1C(=O)N(C)Cc1cccc(OC)c1OC,,"inconclusive [inhibitor, single point]"
Cc1ccc([N+](=O)[O-])cc1NC(=O)CN(C(=O)c1ccc(Cl)cc1)C1CCCCC1,,active: 18.4 µM
COc1ccc(Cn2ccc3nc(C)c(C(=O)Nc4ccc(OC)cc4OC)cc3c2=O)cc1,,"inconclusive [inhibitor, single point]"
CCOc1ccc(NC(=O)CSc2nc(-c3cccs3)cc(C(F)(F)F)n2)c([N+](=O)[O-])c1,,"inconclusive [inhibitor, full curve, poor fit]"
CC1(C)CC(C(=O)N2CCOc3ccc(CN4CCC(Oc5cccnc5)CC4)cc3C2)CCO1 (stereo not drawn),inactive: -23%,
C[C@@H]1CN([C@H](C)CO)C(=O)c2c(c3ccccc3n2C)-c2ccccc2CO[C@@H]1CN(C)C(=O)Nc1ccc2c(c1)OCO2,,"inconclusive [inhibitor, single point]"
COc1cc2c(-c3ccc4cc[nH]c4c3)c(-c3ccsc3)oc(=O)c2cc1OC,,active: 20.6 µM
Cc1c(CN2CCC(CO)(CCOc3ccccc3)CC2)[nH]c2c(Cl)cccc12,,"inconclusive [inhibitor, single point]"
Cc1ccc(NC(=O)Cn2cc(S(=O)(=O)NC(C)C)c(S(=O)(=O)NC(C)C)c2)cc1Cl,inactive: -87.3%,
CCO[C@@H]1OC(C(=O)Nc2ccccc2)=C[C@H](c2csc3ccccc23)[C@H]1CCCO,,"inconclusive [inhibitor, single point]"
CCc1ccc(NC(=O)CNCc2ccc(OC)c(OC)c2)cc1,,"inconclusive [inhibitor, single point]"
CCc1ccc2c(c1)NC(=O)C2(C)Cc1ccccc1Cl (stereo not drawn),,"inconclusive [inhibitor, single point]"
Cc1cc(C)c(S(=O)(=O)Nc2cccc(-c3cn4ccccc4n3)c2)c(C)c1,,active: 29.1 µM
Cc1ccc(NC(=O)Cn2c(=O)n(CCc3ccccc3)c(=O)c3c4c(sc32)CCCC4)cc1C,inactive: -3.24%,
COc1ccccc1CNc1nc(-c2ccc3c(c2)OCO3)nc2ccccc12,,"inconclusive [inhibitor, single point]"
CCO[C@@H]1OC(C(=O)NC2CC2)=C[C@H](c2ccc(C(F)(F)F)cc2)[C@H]1CCCO,,"inconclusive [inhibitor, single point]"
Cc1ccc(C)c(CN2C(=O)c3ccccc3S(=O)c3ccc(C(=O)NCc4ccco4)cc32)c1 (stereo not drawn),,active: 16.4 µM
